According to PubChem BioAssay AID1476 (National Center for Advancing Translational Sciences (NCATS), 2009):
Where “and” joins values, the source holds several entries; their conditions need not be identical. Identical values can stand only once. Among all 200,000 compounds or so, about 4,500 (2.2%) were called active. The inconclusive results got no clear call from the source; some entries with a clear call stand among them for comparison. Calls come from the whole dose curve; as a rule, active = well fitted inhibition curve with a large enough effect; inconclusive = small, poorly fitted or top-dose-only effect, or effect the other way; inactive = flat fitted curve, though single readings scatter. Potencies beside an inconclusive call are fits to weak or partial responses and may not hold up.

target: Cruzipain (Trypanosoma cruzi) (UniProt P25779); assay: qHTS Assay for Promiscuous and Specific Inhibitors of Cruzain (without detergent); details: purified cruzain, Z-FR-AMC fluorescence, no detergent; note: nearly all actives have a fitted effect of over 40% in size;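 for max response, negative = inhibition: plate controls were enzyme without inhibitor for no effect and buffer without enzyme for full effect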
UniProt P25779, sequence (P25779 whole entry, looked up): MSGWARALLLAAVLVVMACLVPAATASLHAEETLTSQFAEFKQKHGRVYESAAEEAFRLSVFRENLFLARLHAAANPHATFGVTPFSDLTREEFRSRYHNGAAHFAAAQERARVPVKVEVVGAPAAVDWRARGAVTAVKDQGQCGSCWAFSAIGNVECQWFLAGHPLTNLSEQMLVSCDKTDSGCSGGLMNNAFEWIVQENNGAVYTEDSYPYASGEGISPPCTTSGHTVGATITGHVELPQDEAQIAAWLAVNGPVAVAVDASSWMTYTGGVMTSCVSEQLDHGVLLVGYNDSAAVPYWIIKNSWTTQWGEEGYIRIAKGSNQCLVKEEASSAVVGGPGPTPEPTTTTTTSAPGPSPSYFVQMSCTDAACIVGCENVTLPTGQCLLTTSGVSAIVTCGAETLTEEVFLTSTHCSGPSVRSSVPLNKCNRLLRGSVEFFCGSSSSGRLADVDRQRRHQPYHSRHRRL
Method in brief: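 Detergent-free condition (0.00005% Triton X-100) in acetate buffer pH 5.5 with DTT. 1.5 nM enzyme and compound were pre-mixed 15 min, then 2 uM Z-FR-AMC substrate added; reaction progress from fluorescence change between first and third reads (60 s).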
Potency is the fitted concentration of half-maximal effect; tags give direction and shape of the fitted curve.

| Structure (SMILES) | Potency | max response, negative = inhibition |
| --- | --- | --- |
| Cc1cc(C)c(S(=O)(=O)N(CC(=O)N2CCOCC2)C2CCCCC2)c(C)c1 | inconclusive: 31.6 µM [activator, single point] | – |
| COc1ccccc1C(=O)NC(=S)NNC(=O)c1sc2ccccc2c1Cl | active: 2.51 µM | – |
| CCC(Sc1nnc2c3ccccc3n(CC)c2n1)C(=O)Nc1sc2c(c1C#N)CCCC2 (stereo unspecified) | inconclusive: 31.6 µM [inhibitor, single point] | – |
| COc1cc(C(=O)OCn2nnc3ccccc3c2=O)cc(OC)c1OC | inconclusive: 39.8 µM [activator, single point] | – |
| CCc1ccc(NC(=O)c2cnn(-c3c(C)cccc3C)c2C2CCN(C(=O)OC(C)(C)C)CC2)cc1 | – | inactive: -10.1% |
| O=C(CCSc1ccccc1)Nc1nc2c(s1)COc1ccccc1-2 | active: 31.6 µM | – |
| Cc1c(C(=O)NCc2ccc3c(c2)OCO3)oc2ccc(S(=O)(=O)N3CCCCCC3)cc12 | inconclusive: 39.8 µM [inhibitor, single point] | – |
| Cn1c(SCc2ccc(Cl)cc2Cl)nc(C(F)(F)F)cc1=O | inconclusive: 7.94 µM [inhibitor, full curve, poor fit] | – |
| CCC(C)(C)C(=O)O[C@@H]1C[C@H](C)C=C2C=C[C@H](C)[C@@H](CC[C@H]3C[C@@H](O)CC(=O)O3)[C@H]21 | inconclusive: 15.8 µM [activator, partial curve] | – |
| CCOc1ccccc1-c1nc(-c2ccc(C)nc2OC)no1 | inconclusive: 31.6 µM [activator, single point] | – |
| O=C(Cc1ccc(-n2c(=O)c3ccccc3n(Cc3cccc([N+](=O)[O-])c3)c2=O)cc1)NCC1CCCO1 (stereo unspecified) | inconclusive: 39.8 µM [activator, single point] | – |
| COc1cc(-c2nnc(SCc3cc(=O)oc4cc(C)ccc34)o2)cc(OC)c1OC | inconclusive: 39.8 µM [activator, single point] | – |
| O=S(=O)(Nc1ccc(-c2ccc(N3CCCCC3)nn2)cc1)c1ccc(OC(F)(F)F)cc1 | – | inactive: 17.1% |
| Cc1ccc(-c2c(CN3CCN(c4cc(C)ccc4C)CC3)csc2C)cc1 | inconclusive: 39.8 µM [inhibitor, single point] | – |
| O=C(COC(=O)CNS(=O)(=O)c1ccccc1)Nc1ccc(Cl)cn1 | inconclusive: 39.8 µM [inhibitor, single point] | – |
| CCc1ccc(NC(=O)CC(c2cc(OC)c(OC)c(OC)c2)N2Cc3ccccc3C2=O)cc1 (stereo unspecified) | inconclusive: 7.94 µM [activator, full curve] | – |
| CCOC(=O)Cc1c(C)nc2c(-c3ccccc3OC)c(C)nn2c1C | inconclusive: 39.8 µM [activator, single point] | – |
| O=C(CSc1nc(-c2cccs2)nc2cc(=O)[nH]n12)Nc1ccccc1 | inconclusive: 31.6 µM [inhibitor, single point] | – |
| COc1ccccc1CNC(=O)CN1C(=O)CCc2cc(S(=O)(=O)N3CCCCC3)ccc21 | – | inactive: 10.2% |
| O=C1CC(N2CCC(c3nc4ccccc4o3)CC2)C(=O)N1c1ccc(Cl)c(C(F)(F)F)c1 (stereo unspecified) | inconclusive: 15.8 µM [activator, partial curve] | – |
| COCCCN(Cc1ccco1)C(=O)c1cc2c(s1)-c1ccccc1OC2 | inconclusive: 25.1 µM [activator, partial curve] | – |

| Structure (SMILES) | Potency | max response, negative = inhibition |
| --- | --- | --- |
| COc1ccc(/C=C/c2nnc(NC(=O)CSc3ccc(Cl)cc3)s2)cc1 | active: 10 µM | – |
| Cc1ccc(NC(=O)c2cc(-c3ccco3)on2)cc1 | inconclusive: 31.6 µM [inhibitor, single point] | – |
| COc1ccccc1-c1noc(-c2ccc(N3CCOCC3)c([N+](=O)[O-])c2)n1 | – | inactive: -3.81% |
| COc1ccccc1N1CCN(C(=O)c2cc3c(=O)n(C)c4ccccc4c3s2)CC1 | – | inactive: 7.8% |
| COc1ccc(CNC(=O)Cn2nc(C)n3cccc3c2=O)cc1 | active: 25.1 µM | – |
| COc1ccc(-c2nc(SCC(=O)NC3CCCC3)c(-c3ccc(OC)cc3)[nH]2)cc1 | inconclusive: 39.8 µM [inhibitor, single point] | – |
| Cc1sc2nc(COC(=O)c3ccc(N4CCCC4)c([N+](=O)[O-])c3)[nH]c(=O)c2c1C | inconclusive: 12.6 µM [inhibitor, partial curve] | – |
| CC1CCN(C(=O)c2ccc3c(c2)N(Cc2ccccc2F)C(=O)c2ccccc2S3(=O)=O)CC1 | – | inactive: 14.1% |
| CCOC(=O)C(C(=O)OCC)=C1OC(=O)c2ccccc21 | inconclusive: 0.1 µM [inhibitor, single point] | – |
| CCOc1ccc(NC(=O)CCN2CCN(S(=O)(=O)c3cc(Cl)ccc3OC)CC2)cc1 | inconclusive: 39.8 µM [activator, single point] | – |
| CC1(C)OC2CC3C4CCC5=CC(=O)CCC5(C)C4(F)C(O)CC3(C)[C@]2(C(=O)CCl)O1 (stereo partly specified) | inconclusive: 25.1 µM [activator, single point] | – |
| COc1ccc(NC(=O)c2cc3c(Cl)nc4ccccc4c3s2)cc1OC | inconclusive: 31.6 µM [activator, single point] | – |
| COC(=O)[C@@]1(Cc2ccc(F)cc2)[C@H]2c3cc(C(=O)N(C)C)n(Cc4c(CO)[nH]cc(C)c4=O)c3C[C@H]2CN1C(=O)c1ccccc1 | inconclusive: 25.1 µM [activator, partial curve] and inconclusive: 12.6 µM [activator, partial curve] | – |
| CCc1nc(SCC(=O)N2c3ccccc3Sc3ccccc32)c2ccccc2n1 | inconclusive: 31.6 µM [inhibitor, single point] | – |
| CCn1c2c(c(=N)c3c1CCC3)CCC2 | – | inactive: -2.32% |
| CCS(=O)(=O)N1Cc2ccccc2CC1C(=O)Nc1nnc(SCc2c(Cl)cccc2Cl)s1 (stereo unspecified) | active: 7.94 µM | – |
| Cc1ccc(C)c(N2C(=O)N(Cc3c(F)cccc3Cl)c3ccccc3S2(=O)=O)c1 | inconclusive: 31.6 µM [inhibitor, single point] | – |
| Cc1cccc(NC(=O)C(C)OC(=O)c2ccccc2NS(=O)(=O)c2cc(C)c(C)c([N+](=O)[O-])c2)c1 (stereo unspecified) | inconclusive: 31.6 µM [inhibitor, single point] | – |
| CCN(Cc1nc(-c2cccc(C)c2)no1)S(=O)(=O)c1ccc(C)cc1 | – | inactive: -3.38% |
| Cc1nc(S(=O)(=O)N2CCN(c3ccc(Cl)cc3)CC2)cn1C | – | inactive: -3.48% |
| Cc1cc(N2CCN(c3ccc(F)cc3)CC2)nc2cc(O)ccc12 | inconclusive: 31.6 µM [inhibitor, single point] | – |

| Structure (SMILES) | Potency | max response, negative = inhibition |
| --- | --- | --- |
| COC(=O)[C@@]1(Cc2ccc(OC)cc2)[C@H]2c3cc(C(=O)N4CCCC4)n(Cc4nc5ccccc5[nH]4)c3C[C@H]2CN1C(=O)c1ccccc1 | inconclusive: 31.6 µM [activator, single point] | – |
| CCOC(=O)c1c(C)[nH]c(C)c1C(=O)COC(=O)/C=C/c1cccc(C(F)(F)F)c1 | inconclusive: 25.1 µM [activator, single point] | – |
| CCCOc1ccc(NC(=O)CC2C(=O)N(c3ccc(C)cc3)C(=O)N2C(C)C)cc1 (stereo unspecified) | inconclusive: 39.8 µM [activator, single point] | – |
| CC(C)CCNC(=O)CN1C(=O)CCn2nc(-c3cn(C)c4ccccc34)cc21 | inconclusive: 31.6 µM [activator, single point] | – |
| COc1ccc(C(=O)/C=C/C(=O)N(Cc2ccc(F)cc2)C(C(=O)NC2CCCCC2)c2ccncc2)c(O)c1 (stereo unspecified) | inconclusive: 39.8 µM [activator, single point] | – |
| COc1ccc(C2CC(c3ccc(Br)cc3)Nc3nc(N)nn32)cc1 (stereo unspecified) | inconclusive: 31.6 µM [activator, single point] | – |
| O=C(c1ccccc1)c1nn(-c2ccccc2)c2nnc(Cc3ccccc3)c(=O)n12 | active: 25.1 µM | – |
| CCCCOc1ccc(C(=O)N/C(=C\c2ccc([N+](=O)[O-])cc2)C(=O)OCc2ccco2)cc1 | inconclusive: 39.8 µM [inhibitor, single point] | – |
| CCOC(=O)C1=C(C)N=c2s/c(=C\C(=O)OC)c(=O)n2C1c1ccc(OC)cc1 (stereo unspecified) | inconclusive: 31.6 µM [activator, single point] | – |
| COc1cc(/C=C(\C#N)c2ccccn2)ccc1OCc1ccccc1Cl | inconclusive: 25.1 µM [inhibitor, partial curve, poor fit] | – |
| Nc1nnc(SCC(=O)c2ccc3ccccc3c2)s1 | active: 31.6 µM | – |
| CCCN(CC1CC1)C(=O)COC(=O)c1ccc(CNS(=O)(=O)c2ccc(F)c(Cl)c2)cc1 | inconclusive: 1.58 µM [inhibitor, single point] | – |
| CCOc1ccccc1C1C(C(N)=O)=C(C)Nc2nc(-c3cccc(C)c3)nn21 (stereo unspecified) | inconclusive: 31.6 µM [activator, single point] | – |
| CC1CCCC(C)N1C(=O)Cn1c(SCC(=O)Nc2ccc3c(c2)OCO3)nc2ccccc21 (stereo unspecified) | – | inactive: -5.08% |
| CCCCOc1ccc(C2C(=O)N(C3CCCCC3)CC(=O)N2CC2CCCO2)cc1 (stereo unspecified) | inconclusive: 31.6 µM [activator, single point] | – |
| COc1ccccc1CNC(=O)Cc1c(C)c2c(cc(C)c3c(C)c(C)oc32)oc1=O | – | inactive: -6.3% |
| Cn1cccc1C(=O)N1CCC2(CCCN(c3ccccn3)C2)CC1 | – | inactive: 2.86% |
| O=C(Nc1ccc(C(=O)N2CCN(c3ccc(F)cc3)CC2)cc1)c1nsc2ccccc12 | inconclusive: 25.1 µM [inhibitor, single point] | – |
| O=C(c1cc(C(=O)NCc2ccccc2)c(=O)n(Cc2ccccc2)c1)c1cc(Cl)ccc1O | inconclusive: 7.94 µM [inhibitor, full curve, poor fit] | – |
